Measurements taken from the supplement of paper PMC3334620.
Over roughly 33,000 sequences, “E-score (-0.5 to 0.5)” has its median near -0.016; the highest 2% begin near 0.31. The list shows a part of the results.

The sequences below were run against Cst6 (UniProt P40535) (assay: PBM E-score (8-mer binding enrichment) (E-score (-0.5 to 0.5)); higher = stronger / more preferred TF binding; most listed sequences are background and not binding sites). Conditions: protein concentration: 200 nM; construct: GST-DNA-binding domain.
Outline: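 Universal all-10-mer Agilent arrays, double-stranded by primer extension on fresh or once-stripped slides, were probed with about 100-200 nM GST-tagged yeast transcription factors made by PURExpress. Fluorescent anti-GST detected bound protein, and masliner normalised the scans. E-scores from the Universal PBM Analysis Suite were given to each ungapped eight-base word pooled with its reverse complement.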

Sequence	PBM E-score
ATGTCAAG	0.235
AGTATGGG	-0.162
TAAATGGA	0.0559
GAAGACCC	-0.364
CCCAAATA	-0.0284
AGCCACGC	-0.0993
AAGTTCCA	-0.112
ATAGTTTG	0.127
CAAGGGCC	-0.295
AATCCTAG	-0.0277
GCCTTGAA	-0.0118
GCGGTTTA	-0.0357
ATGCGATA	0.0301
ATGCGAGG	0.101
CCCGCAGA	-0.209
AAAACCCC	-0.213
TCTACACA	0.004
TCCCCCCA	-0.363
CAAATGAA	0.164
ATGGCTCC	-0.0769
CCCGGTCG	-0.297
AGCTAGAA	-0.0798
AGCTGAGA	-0.101
CAGCAACG	0.161
GGACGACC	-0.371

Sequence	PBM E-score
AAACGTTC	-0.0497
GAGGCTCC	-0.0639
TAAAGTTA	0.271
CCGCGACC	-0.186
AAATTGCC	0.13
CATGAATC	-0.0462
AATCGTAA	0.203
CCAGCATC	-0.0759
GAGACCGC	-0.344
CGCTTGTC	-0.0184
GTGCTGTA	-0.0544
CTACCCCA	-0.16
CTGATCTA	0.0245
AGCAGCGG	-0.265
ACCGCTCT	-0.134
AATACCAT	0.159
GGAAGACA	-0.0844
TAGTCATA	0.124
AAAAGGTA	-0.0898
ACTCCGAA	-0.169
ACTATTAG	0.092
CATGTAAA	0.141
ATAAAGAA	0.259
AGGAGTGG	-0.122
CACTAGGC	-0.0803

Sequence	PBM E-score
CACCAAAA	0.236
ACTACGGA	-0.205
AACACTGC	0.0554
ATTCAAGC	0.0974
TCTGGTCA	0.0204
CAATCATA	0.209
TAAGGGCA	0.00599
ATCGGTAG	-0.028
ACCAGGGC	-0.213
GATAAAAC	0.211
TACCCGGA	0.0384
CCGAGTCA	-0.0552
CCAATGGC	-0.188
AGTCAGCC	-0.185
CCCGTGGA	-0.192
CCCCCCAA	-0.336
GAGGAACA	0.0789
CCGCCGTA	0.0871
CTGTGACC	-0.0661
GCGCCTAC	0.136
ACACGCAT	-0.0164
CACCAAAC	0.17
ATTACTTG	0.097
ATGCGCTG	-0.197
GATCCTTA	0.027

Sequence	PBM E-score
AGAAGGCG	-0.102
CTGGATCC	-0.176
GGGTGGGA	-0.0454
AATACGGT	-0.0647
GAACTCTC	-0.246
ACCAGTTG	-0.103
TCCCTGAA	0.0505
CTAGTCTA	-0.126
AACTCTAT	-0.057
AAATTCGT	0.306
CCCGGTAA	-0.166
ACTACTAA	0.0433
AATCTTTA	0.163
AAAAGCTC	0.0384
CGTGTAAA	0.173
CCTTGGTC	-0.259
CTATAGAG	-0.112
CGCCACGC	-0.0927
AACCAGGA	-0.157
TAGCAAAA	0.0695
GTGACCAC	-0.0917
CCTAGACC	-0.163
CTACCATA	-0.0212
AACGCTGA	0.124
TGTAAAAA	0.117

Sequence	PBM E-score
CAGGATGA	0.032
CCTATCAA	-0.0229
CAGCGGCG	0.0883
TACTTAAA	-0.095
CGCAGGAA	-0.143
AGCAAAAG	-0.0518
CCTAGAAA	-0.0453
CTCGATAC	0.138
AAGTGTAT	0.129
CGATTGCC	0.0548
CGCCGCAA	0.171
AGTGCACG	-0.0418
AGGTTTTA	-0.0454
CAATATGC	0.0334
ATCGCGTC	0.156
ACTTGACT	-0.0879
CGCTCCTA	-0.0972
CTATACAC	-0.0719
AGAGGACG	0.0019
CTACTTGC	-0.0186
CCTGCCAA	-0.153
TATCTCCA	-0.0549
AGTGCTAG	-0.236
GTGAACAA	0.0425
AATCTGTC	0.0136

Sequence	PBM E-score
ACGATACA	-0.0163
ACTACCCC	-0.306
AAACAGGG	-0.235
ACCCCGAA	-0.0372
AAGTCCTA	-0.101
ACGCTTGC	-0.176
AAAGACGC	-0.0772
AACTAGCT	-0.0255
ATGCGTTC	0.212
ATCGGAGA	-0.197
GAACGGCC	-0.183
ATAAGCTG	-0.0901
CACCTGAC	0.122
ATTCGGGG	-0.00486
CGGCTCCC	-0.159
CGCGCTTC	0.0156
CAAGTGGC	-0.022
GCCAAGAA	0.0624
TCTCAAAA	0.191
GGTTAGGA	-0.292
AACCATAT	0.0826
CGGAGCGA	0.0519
GGAGTAAA	0.246
ATCGCGCC	0.191
AACAGCTT	-0.112

Sequence	PBM E-score
AATGATGT	0.41
GAAGCCTC	-0.131
TGAGTCCA	-0.163
AACTACAA	0.065
AGTTCCGG	-0.275
GCCTTACC	-0.207
GGTGCGGA	0.0463
GCACCGTA	-0.00912
CGCACAAA	0.0716
ACGAACCT	-0.0226
ATTCGGAA	0.124
CTAGTATA	-0.00061
AGGGTACT	-0.2
ATCCAGCG	-0.0509
ACTCAGAG	-0.0592
AGACTCAT	-0.0347
TAGACATA	0.118
GCCGGATA	0.0218
GGGTTTCA	-0.0236
GGTCCCGA	-0.243
CGCGCTAC	-0.045
ATAGCCTC	-0.197
